# Data as given in PMC4336329 (PLoS ONE, 2015).
# Out of some 310,000 compounds screened, about 2,200 (0.71%) showed an effect of 50% or more. Effects have a minus sign here. This is one part of the list.
# Molecular target: human ether-à-go-go-related gene (hERG) potassium channel (human, UniProt Q12809)
# Test: primary screen, population patch clamp on CHO cells stably expressing hERG
# Sequence of human ether-à-go-go-related gene (hERG) potassium channel (Q12809 whole entry, looked up): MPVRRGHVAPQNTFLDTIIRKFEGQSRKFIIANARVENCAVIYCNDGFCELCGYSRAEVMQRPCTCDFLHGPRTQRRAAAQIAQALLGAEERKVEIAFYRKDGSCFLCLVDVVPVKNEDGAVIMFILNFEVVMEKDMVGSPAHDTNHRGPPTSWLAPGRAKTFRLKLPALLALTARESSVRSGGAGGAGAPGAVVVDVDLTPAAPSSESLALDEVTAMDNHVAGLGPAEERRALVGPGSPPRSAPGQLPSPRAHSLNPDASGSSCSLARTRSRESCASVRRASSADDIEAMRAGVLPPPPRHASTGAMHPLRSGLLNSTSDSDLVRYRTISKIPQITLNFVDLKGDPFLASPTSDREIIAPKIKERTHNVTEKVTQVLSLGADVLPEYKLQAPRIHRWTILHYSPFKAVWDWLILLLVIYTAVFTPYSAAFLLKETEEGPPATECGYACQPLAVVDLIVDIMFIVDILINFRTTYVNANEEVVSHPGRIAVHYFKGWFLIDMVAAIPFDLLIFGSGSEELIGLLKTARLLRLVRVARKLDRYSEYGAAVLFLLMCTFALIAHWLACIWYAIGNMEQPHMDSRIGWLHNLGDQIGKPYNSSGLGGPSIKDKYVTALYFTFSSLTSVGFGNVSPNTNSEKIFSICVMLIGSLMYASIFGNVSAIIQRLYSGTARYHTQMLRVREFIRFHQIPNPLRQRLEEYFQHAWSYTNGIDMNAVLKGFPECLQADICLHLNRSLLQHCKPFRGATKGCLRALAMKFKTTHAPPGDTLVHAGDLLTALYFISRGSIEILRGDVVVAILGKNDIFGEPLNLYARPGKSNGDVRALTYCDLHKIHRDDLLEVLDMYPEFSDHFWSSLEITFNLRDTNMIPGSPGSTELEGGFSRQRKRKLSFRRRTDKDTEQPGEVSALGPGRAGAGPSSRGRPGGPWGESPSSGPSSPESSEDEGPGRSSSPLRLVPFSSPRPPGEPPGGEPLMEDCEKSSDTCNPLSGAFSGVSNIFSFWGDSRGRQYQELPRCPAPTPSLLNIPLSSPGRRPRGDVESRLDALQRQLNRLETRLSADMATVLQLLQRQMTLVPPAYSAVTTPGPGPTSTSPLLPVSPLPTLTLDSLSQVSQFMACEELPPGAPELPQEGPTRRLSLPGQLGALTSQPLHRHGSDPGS
row,SMILES,"hERG current change (%, negative = inhibition) at 1uM"
1,COc1ccc2nc(SC)c(C#N)cc2c1,6.11%
2,Cc1ccc(NC(=O)Nc2cccc([N+](=O)[O-])c2)nc1,14.5%
3,O=C(Nc1nnc(SCC(=O)N2CCCc3ccccc32)s1)c1ccccc1,8.42%
4,Cc1cccc(N(CC(=O)NC(C)(C)C)C(=O)CS(=O)CC(=O)Nc2ccc(F)cc2)c1 (centres unmarked),24.9%
5,CCOC(=O)[C@@H]1[C@H]2COc3ccccc3[C@H]2N2C(=O)N(c3ccc(Cl)cc3)C(=O)[C@]12C,4.74%
6,CCOc1cc(/C=C(/NC(C)=O)C(=O)O)cc(Cl)c1OCc1cccc(Br)c1,5.06%
7,c1ccc(C2(CN3CCNC[C@H]3Cc3cccc4ccccc34)CC2)cc1,3.83%
8,CCCn1c2c(c(O)c(C(=O)Nc3nc4ccccc4s3)c1=O)CCCC2,20.9%
9,COc1ccc(-c2nc(N)n[nH]2)cc1OC,15.9%
10,CC1(C)OC(=O)C(=CNC(CCC(N)=O)C(=O)O)C(=O)O1 (centres unmarked),11.7%
11,CN(C)CCOC(=O)c1ccc2c(c1)S(=O)(=O)c1ccccc1C2=O.Cl,7.79%
12,Cc1cccc(NC(=O)CSc2nc3[nH]c(=O)cc(O)c3s2)c1,4.34%
13,COc1cccc(CN2CCNC(=O)C2CC(=O)NCCn2cccn2)c1OC (centres unmarked),14.4%
14,COc1ccc(CNC(=O)CS(=O)Cc2nc(-c3ccc(C)cc3)oc2C)cc1 (centres unmarked),5.87%
15,CC1CC1C(=O)OCC(=O)NC(=O)c1ccccc1 (centres unmarked),9.5%
16,CCOC(=O)N1CCC(n2c(SCC(=O)NCc3ccccc3)nc3ccccc3c2=O)CC1,7.38%
17,CCCC(=O)NC(C)C(c1cccs1)N1CCN(C)CC1 (centres unmarked),4.85%
18,CCC(Cc1c(I)cc(I)c(N)c1I)C(=O)O (centres unmarked),8.87%
19,O=C(NCCc1ccccc1Cl)C1CCC(=O)N(C2CCCCCC2)C1 (centres unmarked),9.25%
20,CC(C)[C@H]1C(=O)Nc2ccccc2N1C(=O)N[C@@H](Cc1ccccc1)C(=O)N[C@H](C(=O)O)c1ccccc1,13%
21,COc1ccc(NC(=S)N2CCC(NC(=O)c3cccc(F)c3)CC2)cc1,2.3%
22,COc1cc(S(=O)(=O)N2CCCCC2)ccc1NC(=O)Cc1ccccc1,12.2%
23,COCCn1c(=O)[nH]c2cc(C(=O)N3CCN(c4ccccc4OC)CC3)ccc2c1=O,2.25%

row,SMILES,"hERG current change (%, negative = inhibition) at 1uM"
1,COc1ccc(NC(=O)c2cc(-c3ccccc3)on2)cc1,13.8%
2,COCCNC(=O)c1ccccc1-c1nc(-c2ccccc2Cl)no1,-3.66%
3,Cc1[nH]nc2c1C(c1ccccc1F)CC(=O)N2 (centres unmarked),-1.84%
4,Cc1ccccc1OCC(=O)OCC(=O)Nc1cc(S(=O)(=O)N2CCCCC2)ccc1Cl,9.54%
5,CCc1cc2c(SCc3ccc(C(=O)OC)o3)ncnc2s1,20.7%
6,Cn1c(SCc2nc(-c3ccc(Cl)cc3)no2)nnc1-c1cccs1,-0.507%
7,CCOc1cc(C2C3=C(CC(C)(C)CC3=O)N(CCCOC)C3=C2C(=O)CC(C)(C)C3)ccc1OC,5.09%
8,Cc1ccc(OCCSc2cc(C)nc(N)n2)cc1,4.35%
9,Cc1ccc(-n2nc3c(c2NC(=O)c2ccccc2)CS(=O)(=O)C3)cc1C,-0.502%
10,Cc1ccc(Nc2nc(Cl)nc(NC3CCCCC3)n2)cc1,16.5%
11,O=C(NCCO)C(F)(F)C(F)(F)C(F)(F)OC(F)(C(=O)NCCO)C(F)(F)F (centres unmarked),12.3%
12,Cc1cc(C)n(C(=O)CNC(=O)c2ccco2)n1,10.2%
13,O=C1c2[nH]nc(-c3ccccc3O)c2C(c2cccc(O)c2)N1Cc1ccco1 (centres unmarked),1.45%
14,COc1cccc(-n2nnnc2SCC(=O)Nc2ccc3c(c2)OCCO3)c1,7.76%
15,Cc1cc(Nc2cc(Cl)nc(Sc3ccc(NC(=O)C4CC4)cc3)n2)n[nH]1,6.75%
16,Nc1nc2nc(-c3ccc(F)cc3)cc(C(F)(F)F)n2n1,4.47%
17,CCCC1(c2ccccc2)NC(=O)N(CC(=O)N(C)Cc2c(F)cccc2Cl)C1=O (centres unmarked),15%
18,O=C(O)Cc1ccc(C(=O)c2cccs2)s1,13.8%
19,COc1ccc(S(=O)(=O)N(CC(=O)NC2CC2)c2ccc(C)cc2)cc1,6.87%
20,CN(CCO)c1cc(Sc2nc3ccccc3s2)c2nonc2c1[N+](=O)[O-],14.6%
21,O=C1NC(=O)/C(=C\c2ccccc2OCc2ccccc2)S1,27.2%
22,COc1ccc(OC)c(NC(=O)CSc2nnc(-c3ccco3)n2-c2ccccc2)c1,12%
23,CCn1ncc(N2CCOCC2)c(Cl)c1=O,11.9%

row,SMILES,"hERG current change (%, negative = inhibition) at 1uM"
1,C=CCOc1ccccc1CNc1ccccc1C,14.9%
2,CC(C)OC(=O)CSc1nnc(-c2ccc(Cl)cc2)n1N,8.72%
3,Cc1ccccc1NC(=O)Cc1nnc(SCC(=O)N2CCN(c3ccccc3)CC2)n1C,5.87%
4,CCN(CC)C(=O)c1ccc(COc2ccc(Cl)c(C)c2)o1,9.22%
5,Cc1ccc(S(=O)(=O)Nc2ccccc2C(=O)N2CCCC2)cc1,13.2%
6,CCOc1ccc(NC(=O)C(CC(=O)O)Cc2ccc(C)cc2)cc1 (centres unmarked),12.3%
7,COc1ccc(/C=C/c2nnc(NC(C)=O)s2)cc1,10%
8,CSCCC(NC(=O)c1ccccc1Cl)C(=O)N(C)Cc1cccs1 (centres unmarked),5.83%
9,CCOc1ccccc1NC(=O)Cn1nnc(C(=O)NCCc2ccc(OCC)c(OCC)c2)c1N,5.66%
10,COc1cccc(CNC(=O)C2CCN(S(=O)(=O)c3ccc4c(c3)OCCO4)CC2)c1,8.44%
11,CCC(=O)Nc1nnc(S(=O)(=O)N(C)c2ccccc2)s1,14.7%
12,CCN(CC)c1ccc(N2C(=O)/C(=C/c3cccs3)SC2=S)cc1,17.9%
13,O=C(N/N=C/c1cccnc1)c1ccc(O)cc1,14.4%
14,CCCN(CC(=O)Nc1ccccc1OC)C(=O)CN1C(=O)NC2(CCCCC2)C1=O,2.92%
15,COc1ccc(C(=O)NN=C(Cc2ccccc2)Cc2ccccc2)cc1OC,12.3%
16,CCn1ncc(Br)c1C(=O)Nc1c(C)nn(Cc2c(F)c(F)c(F)c(F)c2F)c1C,8.85%
17,O=C(c1cnc2n(c1=O)CCS2)N(C1CCCCC1)C1CCCCC1,5.05%
18,Cc1cc(NC(NC(=O)c2ccco2)(C(F)(F)F)C(F)(F)F)no1,-1.76%
19,Cc1cc(C)cc(C(=O)N2CC(=O)Nc3ccccc32)c1,-0.28%
20,CCOc1ccccc1N1CC(C(=O)N2CCc3ccccc3C2)CC1=O (centres unmarked),4.47%
21,CSc1ncccc1C(=O)OCC(=O)NC1CCS(=O)(=O)C1 (centres unmarked),11.9%
22,CCNC(=S)NNC(=O)c1cccs1,17%
23,COc1ccc(CC(=O)Nc2ccc(N3CCCCC3)cc2)cc1,9.17%

row,SMILES,"hERG current change (%, negative = inhibition) at 1uM"
1,CCc1ccc(NC(=S)N(CCN(C)C)C(C)c2ccncc2)cc1 (centres unmarked),5.53%
2,CCOC(=O)C1(CC2CCCCO2)CCN(Cc2cn[nH]c2-c2cccc(F)c2)CC1 (centres unmarked),-27.2%
3,Cc1ccc(OCC(=O)N2CCN(Cc3ccc4c(c3)OCO4)CC2)cc1C,-7.31%
4,CN(c1ccccc1C(=O)Nc1cccc([N+](=O)[O-])c1)S(C)(=O)=O,6.13%
5,O=C(c1cccc([N+](=O)[O-])c1)N1CCCC(C(=O)N2CCCCC2)C1 (centres unmarked),11%
6,CCn1cc(C(=O)N2CCc3ccccc32)c(=O)c2cc(S(=O)(=O)N3CC(C)CC(C)C3)ccc21 (centres unmarked),3.81%
7,COc1ccc(OC)c2c1sc(=NC(=O)C1CC1)n2C,0.784%
8,CCC(=O)N1CCCc2ccccc21,17.1%
9,COc1ccc(Cc2nnc(N=Nc3c(O)[nH]c4ccc(Br)cc34)[nH]c2=O)cc1,1.07%
10,CC(C)Oc1ccc(C2CC(=O)NC2=O)cc1 (centres unmarked),1.07%
11,COc1ccc(-c2cc3ccc(OC)cc3cn2)cc1,9.93%
12,CCc1ccc(CN(C)CC(O)COc2cccc3ccccc23)cc1 (centres unmarked),11.4%
13,CCc1ccc(CNC(=O)C2CCCN(c3nnc(C)c4c(C)n(-c5ccccc5)nc34)C2)cc1 (centres unmarked),15.9%
14,CC1CN(C(=S)NC2CCCC2)CC(C)O1 (centres unmarked),8.34%
15,CCn1c2ccccc2c2cc(NC(=O)CN(C)CC(=O)Nc3ccc(N4CCOCC4)cc3)ccc21,13.8%
16,CCn1c(=O)c2cc(S(=O)(=O)NCc3ccccc3)ccc2n(CC)c1=O,12%
17,CCOC(=O)c1ccc(NC(=S)N2CCCC2)cc1,13%
18,CC(=O)NS(=O)(=O)c1ccc(NC(=O)COc2ccc(C(=O)c3ccccc3)cc2)cc1,17.6%
19,COc1ccc(S(=O)(=O)N(C)c2ccc(C(=O)NCC3CCCO3)cc2)cc1 (centres unmarked),4.95%
20,COc1ccccc1NC(=O)C(=O)NCC1CCCN1S(=O)(=O)c1cccs1 (centres unmarked),5.9%
